Data: PubChem BioAssay AID485364 (National Center for Advancing Translational Sciences (NCATS), 2010)
Hit rate of the full screen: of about 360,000 compounds, about 11,000 (3.1%) were called active. The shares of active, inactive and inconclusive entries below differ from those in the screen. Calls follow the shape of the dose curve; as a rule, active = well fitted inhibition curve with a large enough effect; inconclusive = small, poorly fitted or top-dose-only effect; inactive = no such curve, though single readings can be large or run the other way. No potency is given beside an inconclusive call; the fits are too rough.
% is scaled to controls: 0 for no effect and ±100 for the full control effect; potency is read from the fitted curve at half-maximal effect; tags tell the direction and shape of the fitted curve.
Also: nearly all actives have a fitted effect of over 60% in size.

These compounds were tested against Schistosoma mansoni thioredoxin glutathione reductase (TGR) (UniProt Q962Y6) (assay: qHTS Assay for the Inhibitors of Schistosoma Mansoni Peroxiredoxins). Settings: purified TGR, DTNB reduction, TNB absorbance 405 nm; activity change, negative = inhibition: at 114 µM (top of the series) unless noted.
Method in brief: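 First, TGR (20 nM dispensed) and NADPH were mixed with compound. Second, a 15 min room-temperature incubation followed. Third, further NADPH and then DTNB were added to start the reaction. Finally, TNB absorbance was monitored kinetically.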
In the case of `COc1cccc2cc(-c3n[nH]c(=S)n3C)oc12`, the “activity change, negative = inhibition” value is reported as inactive: 0.224%. For `O=C1OCc2cccc3cccc1c23`, the “activity change, negative = inhibition” value was inactive: -26.1%. In the case of `COc1ccc(OC)c(N(CC(=O)N2CCC(C)CC2)S(=O)(=O)c2ccc(OC)c(OC)c2)c1`, the “activity change, negative = inhibition” value is reported as inactive: 4.94%. `O=S(=O)(c1cccc(-c2nc3ccccc3s2)c1)N1CCCC1` was tested, and the “activity change, negative = inhibition” value was inactive: 13.3%. For `CCCCC/C=C\C[C@H](O)/C=C/c1cccc(C[C@H](O)CCCCO)n1`, the Potency was inconclusive [inhibitor, partial curve]. With `CCOc1ccccc1N1CC(c2nc3ccccc3n2CCOc2ccccc2OC)CC1=O` (stereo not drawn) the Potency was inconclusive [inhibitor, partial curve]. For `Cc1cc(C)c2nc(NNC(=O)c3ccc(S(=O)(=O)N4CCc5ccccc5C4)cc3)sc2c1`, the “activity change, negative = inhibition” value was inactive: 4.02%. With `CN(CC(=O)Nc1ccc(F)cc1)C(=O)c1cc(-c2ccco2)nc2ccccc12` the Potency was active: 11.2 µM. `Cc1ccc(S(=O)(=O)CCC(=O)Oc2ccc3c(C)cc(=O)oc3c2)cc1` was tested, and the Potency was active: 22.4 µM. `CCCc1cc(CN(C)C(=O)CC2C(=O)NCCN2Cc2ccccc2C)[nH]n1` (stereo not drawn) was tested, and the Potency was inconclusive [inhibitor, partial curve]. For `CC(C)N1CCC2(CC1)N=C(c1ccc3c(c1)OCO3)CC(c1cc(Cl)ccc1O)N2` (stereo not drawn), the Potency was inconclusive [inhibitor, full curve, poor fit]. For `CN(C)S(=O)(=O)c1ccc(NC(=S)NC(=O)C2CCC2)cc1`, the Potency was inconclusive [inhibitor, single point]. For `O=C(NCCCN1CCOCC1)c1ccc(Sc2ccc(Br)cc2)c([N+](=O)[O-])c1`, the “activity change, negative = inhibition” value was inactive: -5.72%. `Cc1cc2ccccn2c1C(=O)c1ccccc1Br` was tested, and the “activity change, negative = inhibition” value was inactive: -4.75%. For `COc1ccc(/C(N)=N/OC(=O)CCc2ccccc2)cc1OC`, the “activity change, negative = inhibition” value was inactive: 20.9%. For `O=C(CSc1nnc(C2CC2)n1Cc1ccccc1)c1cc2ccccc2o1`, the Potency was inconclusive [inhibitor, partial curve]. For `Cc1ccc(SCCC(=O)NCCSCc2ccco2)cc1`, the Potency was inconclusive [inhibitor, partial curve]. In the case of `Oc1ccc(NCc2ccccc2OCc2ccccc2Cl)cc1`, the Potency is reported as active: 35.5 µM. In the case of `COc1cc(OC)c(NC(=O)CN(C)S(=O)(=O)c2ccc(-c3ccc(=O)[nH]n3)s2)cc1Cl`, the Potency is reported as inconclusive [inhibitor, partial curve, poor fit]. For `COc1ccc2sc(-c3ccccc3OC)c(-c3ccc(OC)c(F)c3)c2c1`, the “activity change, negative = inhibition” value was inactive: -8.95%. With `COc1cc2cc(C)c(SCC(=O)N3CCN(C(=O)c4ccco4)CC3)nc2cc1OC` the Potency was active: 17.8 µM. `CCOc1cc(NC(=O)c2ccccn2)c(OCC)cc1NC(=O)c1cccc(C)c1` was tested, and the “activity change, negative = inhibition” value was inactive: 3.86%. With `N#CC1=C2SCN(C3CCCCC3)CN2C(=O)CC1c1c(F)cccc1Cl` (stereo not drawn) the Potency was inconclusive [inhibitor, full curve, poor fit]. In the case of `Cn1cc([N+](=O)[O-])c(C(=O)N2CCCCCC2)n1`, the Potency is reported as inconclusive [inhibitor, full curve, poor fit]. `NC(=O)C1CCN(C2CC(=O)NC2=O)CC1` (stereo not drawn) was tested, and the Potency was inconclusive [inhibitor, partial curve]. `C[C@]12CC[C@@H]3c4ccc(O)c(O)c4CC[C@H]3[C@@H]1CC[C@@H]2O` was tested, and the Potency was inconclusive [inhibitor, full curve, poor fit]. `CNC(C)C#Cc1c(-c2cc(OC)c(OC)c(OC)c2)noc1C` (stereo not drawn) was tested, and the Potency was inconclusive [inhibitor, full curve]. In the case of `C#CCOCCOCCOCCNc1nc(N2CCN(C(=O)CCCCCCCCCCNC(=O)[C@H]([C@@H](C)CC)n3cc(CCCCN=C(N)N)nn3)CC2)nc(N2CCN(C(=O)CCCCCCCCCCNC(=O)[C@H](CCCN=C(N)N)n3cc(C[C@@H](C)CC)nn3)CC2)n1`, the Potency is reported as inconclusive [inhibitor, partial curve]. With `O=C1N=C(N2CCN(c3ccccc3)CC2)S/C1=C\c1ccco1` the Potency was active: 22.4 µM. `O=C(O)COc1ccccc1C1C2C(=O)N(c3ccc(F)cc3)C(=O)C2ON1c1ccccc1` (stereo not drawn) was tested, and the Potency was inconclusive [inhibitor, single point]. With `Fc1cccc(C2NC(=S)NC3=C2N2CCC3CC2)c1` (stereo not drawn) the Potency was inconclusive [inhibitor, full curve, poor fit]. `NS(=O)(=O)c1ccc(NC(=S)NCc2cccc(Cl)c2)cc1` was tested, and the Potency was inconclusive [inhibitor, partial curve, poor fit]. With `COc1ccc2[nH]c3c(c2c1)CCC/C3=N\N` the Potency was active: 44.7 µM. In the case of `COc1cc(CCCN[C@H](CN)Cc2ccccc2)cc(OC)c1OC`, the Potency is reported as inconclusive [inhibitor, partial curve]. In the case of `CCOC(=O)N1CCC(NC(=O)c2ccc(CS(=O)c3cccc(Cl)c3)o2)CC1` (stereo not drawn), the Potency is reported as inconclusive [inhibitor, partial curve]. For `CN(CCN1CCOCC1)C(=O)CC1C(=O)NCCN1Cc1ccccc1C(F)(F)F` (stereo not drawn), the Potency was inconclusive [inhibitor, full curve]. In the case of `CN(CCC#N)C(=O)COC(=O)c1ccccc1C(=O)c1ccc(Cl)c([N+](=O)[O-])c1`, the Potency is reported as active: 12.6 µM. In the case of `NC(=O)CCCn1c(C(=O)c2cc(Cl)c(N)c(Cl)c2)c2ccc(C(F)(F)F)cc2[n+]1[O-]`, the Potency is reported as inconclusive [inhibitor, partial curve]. In the case of `O=C(O)c1ccc(-n2cccc2/C=C2/NC(=O)N(c3cccc(Cl)c3)C2=O)cc1`, the Potency is reported as inconclusive [inhibitor, partial curve]. `CC(=O)OCC1=C(C(=O)O)N2C(=O)[C@@H](NC(=O)Cc3cccs3)[C@H]2SC1` was tested, and the Potency was inconclusive [inhibitor, partial curve]. With `Cc1cc(-n2c(C)cc(C(=O)CCl)c2C)no1` the Potency was active: 8.91 µM. With `COc1ccc(C2=NO[C@H]3C[C@](C(=O)NC(C)C)(S(=O)(=O)c4ccccc4)C[C@@H]23)cc1` the Potency was inconclusive [inhibitor, partial curve]. With `Cc1ccc(CS(=O)(=O)Cc2ccc(C(=O)NC3CC3)o2)cc1` the “activity change, negative = inhibition” value was inactive: -14.3%.
